# Inconclusive results are not listed. Some entries of the source have several records that differ or are many. The list is limited to them. The source may hold further records. Values given together are repeated measurements in other runs, samples, wells, individuals or studies. Counts like (3×) give the number of equal values in this list.
# Test system: BDF1 mice, colon carcinoma 38 sc, T/C %
# Assay: NCI In Vivo Anticancer Drug Screen. Data for tumor model Colon Carcinoma 38 (subcutaneous) in B6D2F1 (BDF1) mice
# Conditions: endpoint: median tumor weight (est.), higher = larger tumour
# Outline: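 Ratio of survival or tumor size, compound-treated animals relative to vehicle controls, in tumor-bearing mice.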
# [1] = dose: 25.0 mg/kg/injection, schedule: Q07DX002 (ip), vehicle: saline with Tween-80
# [2] = dose: 100.0 mg/kg/injection, schedule: Q07DX002 (ip), vehicle: saline with Tween-80
# [3] = dose: 200.0 mg/kg/injection, schedule: Q07DX002 (ip), vehicle: saline with Tween-80
# [4] = dose: 50.0 mg/kg/injection, schedule: Q07DX002 (ip), vehicle: saline with Tween-80
# [5] = dose: 12.5 mg/kg/injection, schedule: Q07DX002 (ip), vehicle: saline
# [6] = dose: 50.0 mg/kg/injection, schedule: Q07DX002 (ip), vehicle: saline
# [7] = dose: 200.0 mg/kg/injection, schedule: Q07DX002 (ip), vehicle: saline
# [8] = dose: 800.0 mg/kg/injection, schedule: Q07DX002 (ip), vehicle: saline
# [9] = dose: 12.5 mg/kg/injection, schedule: Q07DX002 (ip), vehicle: saline with Tween-80
# [10] = dose: 25.0 mg/kg/injection, schedule: Q07DX002 (ip), vehicle: saline
# [11] = dose: 50.0 mg/kg/injection, schedule: Q07DX002 (ip), vehicle: Klucel (hydroxypropylcellulose) (HPC)
# [12] = dose: 400.0 mg/kg/injection, schedule: Q07DX002 (ip), vehicle: Klucel (hydroxypropylcellulose) (HPC)
compound,measurement,setting,value
O=C1C(NCCO)=C(N2CC2)C(=O)C(NCCO)=C1N1CC1,T/C,"dose: 0.5 mg/kg/injection, schedule: Q07DX002 (ip), vehicle: saline",39 % of control and 116 % of control
same,T/C,"dose: 1.0 mg/kg/injection, schedule: Q07DX002 (ip), vehicle: saline",18 % of control and 72 % of control
Cc1nc(N)nc(N)c1-c1ccc(Cl)c(Cl)c1,T/C,"dose: 20.0 mg/kg/injection, schedule: Q07DX002 (ip), vehicle: saline","14 % of control, 66 % of control, 70 % of control"
same,T/C,"dose: 40.0 mg/kg/injection, schedule: Q07DX002 (ip), vehicle: saline",5 % of control and 75 % of control
COc1cccc2c1C(=O)c1c(O)c3c(c(O)c1C2=O)C[C@@](O)(C(C)=O)C[C@@H]3OC1CC(N)C(O)C(C)O1 (some centres not stated),T/C,"dose: 4.0 mg/kg/injection, schedule: Q07DX003 (ip), vehicle: saline",30 % of control and 102 % of control
CC[C@@]1(O)C[C@H](OC2CC(N(C)C)C(OC3CC(O)C(OC4CCC(=O)C(C)O4)C(C)O3)C(C)O2)c2c(cc3c(c2O)C(=O)c2c(O)cccc2C3=O)[C@H]1C(=O)OC (some centres not stated),T/C,"dose: 1.5 mg/kg/injection, schedule: Q07DX002 (ip), vehicle: water",72 % of control and 103 % of control
same,T/C,"dose: 3.0 mg/kg/injection, schedule: Q07DX002 (ip), vehicle: water",20 % of control and 109 % of control
same,T/C,"dose: 6.0 mg/kg/injection, schedule: Q07DX002 (ip), vehicle: water",43 % of control and 121 % of control
Cc1c2cc[n+](C)cc2c(C)c2c1[nH]c1ccc(O)cc12,T/C,"dose: 2.0 mg/kg/injection, schedule: Q07DX002 (ip), vehicle: water",78 % of control and 116 % of control
CCCCN(CCCC)C(Cl)=Nc1ccccc1,T/C,"dose: 100.0 mg/kg/injection, schedule: Q07DX002 (ip), vehicle: Klucel (hydroxypropylcellulose) (HPC)",71 % of control and 102 % of control
COC1(OC)C2C=CC1CC2,T/C,[1],94 % of control and 123 % of control
same,T/C,[2],71 % of control and 99 % of control
CCC(CC)COC(=O)c1ccccc1C(=O)OCC(CC)CC,T/C,[2],76 % of control and 164 % of control
same,T/C,[3],53 % of control and 197 % of control
same,T/C,"dose: 800.0 mg/kg/injection, schedule: Q07DX002 (ip), vehicle: saline with Tween-80",66 % of control and 111 % of control
NC(=O)c1csc(C2OC(CO)C(O)C2O)n1 (configuration not stated),T/C,"dose: 1600.0 mg/kg/injection, schedule: Q07DX002 (ip), vehicle: water",56 % of control and 88 % of control
Nc1ccc2c(c1)CN1C(=O)c3ccccc3C1=N2,T/C,"dose: 25.0 mg/kg/injection, schedule: Q07DX002 (ip), vehicle: other",51 % of control and 105 % of control
same,T/C,"dose: 50.0 mg/kg/injection, schedule: Q07DX002 (ip), vehicle: other",58 % of control and 100 % of control
CCOC(=O)[C@]1(Br)CC[C@@]1(Br)C(=O)OCC,T/C,[1],60 % of control and 112 % of control
NC(Cc1ccc(N(CCCl)CCCl)cc1)C(=O)O (configuration not stated),T/C,"dose: 2.0 mg/kg/injection, schedule: Q07DX002 (ip), vehicle: Klucel (hydroxypropylcellulose) (HPC)","66 % of control, 87 % of control, 112 % of control"
same,T/C,"dose: 4.0 mg/kg/injection, schedule: Q07DX002 (ip), vehicle: Klucel (hydroxypropylcellulose) (HPC)","64 % of control, 92 % of control, 95 % of control"
Cc1ccc(Cl)c2ccccc12,T/C,[4],84 % of control and 152 % of control
C=C1CC2(OC1=O)C(=O)N(C)c1ccc(I)cc12 (configuration not stated),T/C,[5],98 % of control and 181 % of control
same,T/C,[6],77 % of control and 115 % of control
same,T/C,"dose: 100.0 mg/kg/injection, schedule: Q07DX002 (ip), vehicle: saline",70 % of control and 101 % of control
C=CCc1cn(C2CC(O)C(CO)O2)c(=O)[nH]c1=O (configuration not stated),T/C,[7],81 % of control and 123 % of control
same,T/C,"dose: 400.0 mg/kg/injection, schedule: Q07DX002 (ip), vehicle: saline",50 % of control and 106 % of control
same,T/C,[8],35 % of control and 88 % of control
BrC[P+](CBr)(CBr)CBr,T/C,[9],29 % of control and 92 % of control
same,T/C,[1],50 % of control and 159 % of control
C=CCOCC1CO1 (configuration not stated),T/C,[10],68 % of control and 110 % of control
same,T/C,[6],69 % of control and 108 % of control
COC1C(/C=C/C(C)=O)OC2OC(C)(C)OC21 (configuration not stated),T/C,[5],93 % of control and 154 % of control
same,T/C,[6],82 % of control and 115 % of control
same,T/C,[7],84 % of control and 111 % of control
O=c1ssc(=Nc2ccccc2)n1-c1ccccc1,T/C,"dose: 25.0 mg/kg/injection, schedule: Q07DX002 (ip), vehicle: Klucel (hydroxypropylcellulose) (HPC)",54 % of control and 150 % of control
same,T/C,[11],62 % of control and 124 % of control
same,T/C,"dose: 200.0 mg/kg/injection, schedule: Q07DX002 (ip), vehicle: Klucel (hydroxypropylcellulose) (HPC)",108 % of control and 157 % of control
same,T/C,[12],78 % of control and 113 % of control
CCOC(=O)Nc1cc2c(c(N)n1)N=C(CN(C)c1ccccc1)CN2,T/C,"dose: 12.5 mg/kg/injection, schedule: Q07DX002 (ip), vehicle: Klucel (hydroxypropylcellulose) (HPC)",45 % of control and 79 % of control
O=C1CCC(=O)N1CO,T/C,[8],72 % of control and 104 % of control
S=C=NCCc1ccccc1,T/C,"dose: 6.25 mg/kg/injection, schedule: Q07DX002 (ip), vehicle: saline with Tween-80",71 % of control and 114 % of control
same,T/C,[9],61 % of control and 90 % of control
same,T/C,[1],78 % of control and 113 % of control
same,T/C,[4],37 % of control and 68 % of control
O=C1C=CC(=O)N1c1ccc(Cl)cc1,T/C,"dose: 2.5 mg/kg/injection, schedule: Q07DX002 (ip), vehicle: Klucel (hydroxypropylcellulose) (HPC)","34 % of control, 56 % of control, 108 % of control"
same,T/C,"dose: 5.0 mg/kg/injection, schedule: Q07DX002 (ip), vehicle: Klucel (hydroxypropylcellulose) (HPC)",39 % of control (2×) and 83 % of control
C=C[Si]12OCCN(CCO1)CCO2,T/C,[11],82 % of control and 113 % of control
same,T/C,[12],95 % of control and 167 % of control
O=C1N(Cl)C(=O)C(c2ccc(Cl)cc2)(c2ccc(Cl)cc2)N1Cl,T/C,[4],"59 % of control, 76 % of control, 99 % of control"
same,T/C,[2],"64 % of control, 97 % of control, 101 % of control"
same,T/C,[3],"58 % of control, 78 % of control, 124 % of control"
same,T/C,"dose: 400.0 mg/kg/injection, schedule: Q07DX002 (ip), vehicle: saline with Tween-80","42 % of control, 58 % of control, 79 % of control"
COc1cccc2c1C(=O)c1c(O)c3c(c(O)c1C2=O)C[C@@](O)(C(C)=O)C[C@@H]3OC1CC(N(Cc2ccccc2)Cc2ccccc2)C(O)C(C)O1 (some centres not stated),T/C,"dose: 6.75 mg/kg/injection, schedule: Q07DX002 (ip), vehicle: saline with Tween-80",78 % of control and 108 % of control
same,T/C,"dose: 13.5 mg/kg/injection, schedule: Q07DX002 (ip), vehicle: saline with Tween-80",45 % of control and 74 % of control
ClCCCN1CCCCC1CCl (configuration not stated),T/C,"dose: 1.56 mg/kg/injection, schedule: Q07DX002 (ip), vehicle: saline","46 % of control, 61 % of control, 160 % of control"
same,T/C,"dose: 3.12 mg/kg/injection, schedule: Q07DX002 (ip), vehicle: saline","45 % of control, 73 % of control, 88 % of control"
same,T/C,"dose: 6.25 mg/kg/injection, schedule: Q07DX002 (ip), vehicle: saline","49 % of control, 86 % of control, 122 % of control"
same,T/C,[5],"37 % of control, 57 % of control, 110 % of control"
same,T/C,[10],"53 % of control, 79 % of control, 110 % of control"
CCC1(O)CC2CN(CCc3c([nH]c4ccccc34)C(C(=O)OC)(c3cc4c(cc3OC)N(C)C3C(O)(C(N)=O)C(O)C5(CC)C=CCN6CCC43C65)C2)C1 (configuration not stated) (tested in a mixture with another compound),T/C,"dose: 0.25 mg/kg/injection, schedule: Q07DX002 (ip), vehicle: water",91 % of control and 121 % of control
same,T/C,"dose: 1.0 mg/kg/injection, schedule: Q07DX002 (ip), vehicle: water",52 % of control and 100 % of control

# Source: PubChem BioAssay AID212 (DTP/NCI, 2004)
